# Screen size: about 310,000 compounds; about 2,200 (0.71%) showed an effect of 50% or more. The effect is printed as a negative number. The list shows a part of the results.
# Target: human ether-à-go-go-related gene (hERG) potassium channel (human, UniProt Q12809)
# Assay: primary screen, population patch clamp on CHO cells stably expressing hERG
# Chain of human ether-à-go-go-related gene (hERG) potassium channel (Q12809 whole entry, looked up): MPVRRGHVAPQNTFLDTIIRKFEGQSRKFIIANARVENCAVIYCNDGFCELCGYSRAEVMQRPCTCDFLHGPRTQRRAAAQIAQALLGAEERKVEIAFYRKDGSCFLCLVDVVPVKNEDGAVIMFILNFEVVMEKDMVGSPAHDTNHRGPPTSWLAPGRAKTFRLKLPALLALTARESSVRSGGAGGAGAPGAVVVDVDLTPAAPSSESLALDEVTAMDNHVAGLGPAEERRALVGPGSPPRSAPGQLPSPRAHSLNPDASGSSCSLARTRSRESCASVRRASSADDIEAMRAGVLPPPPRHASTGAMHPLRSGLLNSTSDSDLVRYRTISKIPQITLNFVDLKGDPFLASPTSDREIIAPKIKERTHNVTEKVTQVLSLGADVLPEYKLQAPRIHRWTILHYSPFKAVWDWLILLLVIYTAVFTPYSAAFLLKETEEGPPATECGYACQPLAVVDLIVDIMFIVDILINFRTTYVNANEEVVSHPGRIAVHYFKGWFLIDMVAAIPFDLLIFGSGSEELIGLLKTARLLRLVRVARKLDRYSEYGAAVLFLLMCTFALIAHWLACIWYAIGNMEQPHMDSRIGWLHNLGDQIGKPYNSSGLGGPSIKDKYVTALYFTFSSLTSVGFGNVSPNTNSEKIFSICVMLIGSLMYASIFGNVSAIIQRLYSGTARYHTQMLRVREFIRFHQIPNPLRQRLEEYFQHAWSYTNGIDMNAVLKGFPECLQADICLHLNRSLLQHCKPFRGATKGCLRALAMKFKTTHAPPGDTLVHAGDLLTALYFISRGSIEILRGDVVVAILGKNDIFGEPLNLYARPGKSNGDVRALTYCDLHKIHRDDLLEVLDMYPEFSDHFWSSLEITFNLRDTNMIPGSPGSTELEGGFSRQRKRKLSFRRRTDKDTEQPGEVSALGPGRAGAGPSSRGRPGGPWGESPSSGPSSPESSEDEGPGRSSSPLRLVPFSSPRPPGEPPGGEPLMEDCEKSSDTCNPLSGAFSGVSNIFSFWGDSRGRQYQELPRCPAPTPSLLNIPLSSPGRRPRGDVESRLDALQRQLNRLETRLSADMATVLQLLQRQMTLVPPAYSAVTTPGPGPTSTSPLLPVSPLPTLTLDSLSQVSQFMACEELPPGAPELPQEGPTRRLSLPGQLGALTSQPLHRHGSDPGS
row,SMILES,"hERG current change (%, negative = inhibition) at 1uM"
1,CCN(CC)Cc1c(O)c(Cl)cc2c3c(c(=O)oc12)CCCC3,5.31%
2,Cc1cccc(NC(=O)COc2ccc(-c3nn(C)c(=O)c4ccccc34)cc2)c1,-6.58%
3,O=S1(=O)C=C(Sc2nnc(-c3ccccc3)o2)c2ccccc21,-11%
4,Cc1ccc(N=C(N)N=C(N)N)cc1,15.6%
5,CSc1nc(Cl)cc(N2CCOCC2)n1,12.7%
6,CC(=O)Nc1ccc(N2C(=O)c3cccc4c(O)ccc(c34)C2=O)cc1,13.3%
7,COCCCNC(=O)Cc1c(C)c2c(cc(C)c3c(C(C)(C)C)coc32)oc1=O,0.222%
8,COc1cc(C(=O)NCC(c2cccnc2)N2CCN(c3ccccc3)CC2)cc(OC)c1OC (stereo not shown),3.11%
9,CCOC(=O)Cn1nc(-c2ccc(C)cc2)ccc1=O,-4.09%
10,O=C(OCc1ccco1)c1cccnc1,5.87%
11,COc1ccc(NC(=O)C2(c3ccccc3)CCCC2)cc1,22.4%
12,O=C(NC(=S)Nc1ccccc1N1CCCC1)c1ccco1,0.475%
13,Cc1noc(C)c1C(=O)N1CCCC(N2CCN(c3cccc(C(F)(F)F)c3)CC2)C1 (stereo not shown),-13.4%
14,Cc1ccccc1NC(=O)CN1C(=O)NC2(CCCCC2)C1=O,2.22%
15,Cc1cc(S(=O)(=O)Nc2ccc(N(C)C)cc2)c(C)s1,5.54%
16,Cc1ccc(S(=O)(=O)Cc2c(C)noc2C)cc1,7.04%
17,CCN(CC)C(=O)C1CCC(CNS(=O)(=O)c2cccc3nsnc23)CC1 (stereo not shown),4.25%
18,COc1ccccc1C(CNC(=O)C1COc2ccccc2O1)N1CCCC1 (stereo not shown),15.7%
19,[Cl-].c1ccc(COc2ccc(-c3sc(Nc4ccccc4)n[n+]3-c3ccccc3)cc2)cc1,10.6%
20,Cc1cccc(OCc2nc(C#N)c(N3CC(C)CC(C)C3)o2)c1 (stereo not shown),3.7%
21,N#Cc1ccc(NC(=O)Nc2ccc(Cl)cc2)cc1,7.36%
22,CCNC(=O)c1cc(Cl)ccc1OC,3.4%
23,S=C(NCCCN1CCOCC1)N1CCN(c2nc(-c3ccc(Cl)cc3)cs2)CC1,-2.41%

row,SMILES,"hERG current change (%, negative = inhibition) at 1uM"
1,Cc1ccc(/C=C(\C#N)C(=O)NCc2ccco2)o1,4.56%
2,CCOc1ccc(N2CC(C(=O)Nc3ccccc3C(=O)N3CCOCC3)CC2=O)cc1 (stereo not shown),14.7%
3,Cl.Clc1ccc(CNCCC2=CCCCC2)cc1,-8.61%
4,CCN1CCN(C(=O)C2CCC(CNS(=O)(=O)c3ccc(NC(C)=O)cc3)CC2)CC1 (stereo not shown),12.6%
5,O=S(=O)(c1cccs1)N1CCN(CCc2ccccc2)CC1,20.8%
6,CC(C)C(=O)Nc1cccc(NC(=O)c2cccc(Br)c2)c1,-3.1%
7,COc1ccc(OC)c(C2=NOC(C(=O)NCc3ccco3)C2)c1 (stereo not shown),15.6%
8,COc1cc2c(cc1OC)C(c1ccccc1)N(C(=O)CCl)CC2 (stereo not shown),16.3%
9,O=C(O)C1CCC(NSc2ccccc2[N+](=O)[O-])CC1 (stereo not shown),8.17%
10,Cn1c2ccccc2c2ncn(Cc3ccc(F)cc3)c(=O)c21,10.1%
11,CCCCOP(=O)(c1ccc(N(C)C)cc1)C(O)c1ccccc1F (stereo not shown),2.82%
12,COc1ccc(S(=O)(=O)N2CCC(C(=O)NCCC(=O)Nc3cccc(OC)c3)CC2)cc1,9.47%
13,CN(C)Cc1ccccc1Sc1ccc(Br)cc1,3.69%
14,CCCc1n[nH]c2c1C(=O)C(C(=O)OC)C(C)(C)C2 (stereo not shown),5.57%
15,Cc1ccc(OCC(=O)NCCC2=CCCCC2)cc1,0.8%
16,O=C(COCC(=O)N/N=C/c1ccccc1F)N/N=C/c1ccccc1F,-31.5%
17,CCn1cc(C(c2ccccc2)C(C(C)=O)[N+](=O)[O-])c2ccccc21 (stereo not shown),9.37%
18,OC(COc1ccccc1)CN1CCN(C(c2ccccc2)c2ccccc2)CC1 (stereo not shown),-24.1%
19,COc1ccc(C(=O)N(C)Cc2ccc(C)o2)cc1OC1CCN(C(C)C)CC1,9.04%
20,CC(C(=O)O)n1c2ccccc2c2cnn(C)c(=O)c21 (stereo not shown),7.3%
21,Cc1cc(OCC(=O)N2CCC(C(N)=O)CC2)c2c(C)cc(=O)oc2c1,11.6%
22,Cc1ccc(NC(=O)c2cc(S(=O)(=O)N(C)C)ccc2N2CCCC2)cc1F,7.97%
23,CC(SC1CCCC1)C(=O)Nc1ccnn1C(C)C (stereo not shown),7.28%

# — publication PMC4336329 (PLoS ONE, 2015)
